Laboratory results published in PubChem BioAssay AID485313 (National Center for Advancing Translational Sciences (NCATS), 2010).
The campaign covered roughly 320,000 compounds. About 7,600 (2.4%) were called active. Inconclusive results, whose numbers are uncertain, are shown with a selection of clear calls. Calls come from the whole dose curve; as a rule, active = well fitted activation curve with a large enough effect; inconclusive = small, poorly fitted or top-dose-only effect; inactive = no such curve, though single readings can be large or run the other way. Potencies beside an inconclusive call are fits to weak or partial responses and may not hold up.

Assay: qHTS Assay for NPC1 Promoter Activators; note: nearly all actives have a fitted effect of over 60% in size
Conditions: Huh7 NPC1 promoter luciferase reporter, 24 h; series mostly up to 9.22 µM
Text: NIH Chemical Genomics Center [NCGC] NIH Molecular Libraries Probe Production centers Network [MLPCN] MLPCN Grant: MH089375-01A1 Assay Submitter (PI): Yiannis A. Ioannou NCGC Assay Overview: Niemann Pick Type C (NPC) is a rare neurodegenerative lipidosis that is characterized by lipid storage in the endosomal/lysosomal system. Treatment modalities for this devastating disease are currently non-existent due to the severe obstacles associated with accessing the central nervous system with proteins or genes. The majority of mutations causing NPC disease are missense mutations that are distributed throughout the length of the NPC1 protein, with the most prevalent being the I1061T allele. Although NPC1 mutant proteins may be functional, they are typically trapped in the ER due to misfolding. […] We have developed and optimized a cell based luciferase reporter assay in 1536 well format for the identification of up-regulators of the mutant NPC1 promoter.
The NPC1 promoter is cloned in front of the luciferase reporter gene, therefore NPC promoter activation results in luciferase expression. Frozen stock of the NPC1 promoter transfected Huh7 cells were obtained from the laboratory of Dr. Yiannis Ioannou (The Mount Sinai School of Medicine, New York, NY). Cells were propagated and maintained at NCGC in medium containing RPMI-1640 supplemented with 10% FBS, 2mM L-glutamine, and 50ug/ml penicillin/streptomycin. Cells were harvested in and plated for assays in OP-MEM I reduced-serum medium supplemented with 10% FBS. The Amplite luciferase reporter gene assay kit was purchased from ABD Bioquest and prepared/stored according to manufacturers recommendations. qHTS Assay Setup: 1.#Dispensed 5ul of Huh7 cells stably expressing NPC1-luciferase at a density of 1500 cells per well 1536-well plates. 2.#Incubate cells at 37C, 5% CO2, and 95% humidity for 2 hours. 3.#Transferred 23nl per well of compound in DMSO solution. 4.#Incubated at 37C, 5% CO2, and 95% humidity for 24 hours. 5.#Dispensed 3ul per well of Amplite reagent(ABD Bioquest) per well. 6.#Incubate at ambient for 10 minutes. 7.#Read using the luminescence protocol on the ViewLux plate reader (Perkin Elmer).
Potency is the fitted concentration of half-maximal effect; tags give direction and shape of the fitted curve.

Potency, inactive:
O=C(O)c1ccc(N2CC3CC(C2)c2cccc(=O)n2C3)c(NS(=O)(=O)c2cccc(C(F)(F)F)c2)c1 (centres undefined)
CCN(CC)CCn1c(NCc2ccc(C)o2)nc2ccccc21
CCC(=O)Nc1c(C(=O)Nc2cccc(OC)c2)oc2ccccc12
CCN(CC)S(=O)(=O)c1ccc(N2CCN(C)CC2)c(NC(=O)c2cc(=O)c3ccccc3o2)c1
O=C(Nc1ccc2c(c1)N(S(=O)(=O)c1cccs1)CCC2)c1c(F)cccc1Cl
O=C(CN1C(=O)COc2ccccc21)NCCCN1CCCCC1
O=Cc1ccc(OC(=O)c2cccnc2)cc1
O=C(CS(=O)(=O)Cc1ccccc1)N1CCc2ccccc21
Cc1ccc(NC(=O)CCn2c(=S)oc3ccccc32)cc1F
N#Cc1cccc(NC(=O)C2CCCN(C(=O)c3ccc(Cl)cc3)C2)c1 (centres undefined)
CCN(CC)C(=O)Cn1cc(S(=O)(=O)CC(=O)NCCc2ccccc2)c2ccccc21
CSCCC(NC(=O)c1ccco1)C(=O)N1CCCC(C(F)(F)F)C1 (centres undefined)
O=C(CSc1nnc(-c2ccncc2)o1)N1CCCCCC1
CCOCCCNC(=S)N1CCN(c2nc(-c3ccc(F)cc3)cs2)CC1
Cc1cc(C)cc(C(=O)NCC(=O)OCC(=O)c2cc(C)n(CC(F)(F)F)c2C)c1
CCOC(=O)c1nc(N/N=C/c2ccccc2)sc1Br
CCc1ccc(C(=O)/C=C/c2ccc([N+](=O)[O-])o2)cc1
S=C(NCc1ccc(Cl)cc1)Nc1ccncc1
C=CCSC1=C(C#N)C(c2ccc(OCC)cc2)CC(=O)N1 (centres undefined)
COc1ccc(Cl)cc1NC(=O)CN(C)C(=O)c1cn(-c2ccccc2)nc1-c1cccnc1
COc1ccc(Nc2cc(C(=O)NCc3ccco3)c3ccccc3n2)c(OC)c1
O=c1nc2n(c3cccc(Cl)c13)CCCCC2
O=C(N/N=C/c1ccncc1)c1ccc(OCc2ccccc2)cc1
COc1ccccc1C(=O)C1CCCN(C(=O)C2=CC(=O)CC(C)(C)O2)C1 (centres undefined)

Potency, inconclusive:
COC(=O)c1sccc1NC(=O)/C=C\c1ccc(Cl)cc1Cl 6.31 µM [activator, single point]
O=C(NC(=S)Nc1ccccc1[N+](=O)[O-])c1ccccc1Cl 2.82 µM [activator, partial curve]
Cc1ccc(NC(=O)N2CCCCCC2)c(C)c1 3.55 µM [activator, single point]
Oc1sc(C=Nc2ccccc2)c2ccccc12 5.01 µM [activator, single point]
COc1ccc(OC)c2nc(-c3cccnc3)ccc12 2.24 µM [activator, partial curve]
CC(C)(C)S(=O)(=O)c1cnc2c(-c3ccsc3)cnn2c1N 3.16 µM [activator, partial curve]
Nc1nc(N)nc(-c2cc(F)ccc2O)n1 3.98 µM [activator, partial curve, poor fit]
COc1ccc2c(Cl)c(C(=O)NC3CCS(=O)(=O)C3)sc2c1 (centres undefined) 3.55 µM [activator, partial curve]
COc1cccc(NC(=O)C2=COCCO2)c1 3.55 µM [activator, partial curve]
CCc1cc2cc(C(=O)Nc3ccc(F)cc3)sc2s1 3.98 µM [activator, single point]
CC1CCCCN1c1ncnc(N)c1[N+](=O)[O-] (centres undefined) 1.12 µM [activator, single point]
CC(=O)Nc1cccc(C(=O)/C=C/c2ccc[nH]2)c1 3.98 µM [activator, partial curve]
N/C(=N\OC(=O)c1ccc2c(c1)OCO2)c1cccc(Br)c1 5.62 µM [activator, single point]
O=[N+]([O-])c1nn(-c2ccccc2)n(O)c1=NCCc1ccccc1 3.55 µM [activator, single point]
Cc1nc(-c2ccc(C(=O)Nc3ccc(F)cc3)cc2)cs1 0.708 µM [activator, partial curve]
COc1cc2oc3ccccc3c(=O)c2cc1OC 5.62 µM [activator, single point]
Cc1cc(NC(=O)CSc2nc3ccsc3c(=O)n2Cc2ccccn2)n[nH]1 3.98 µM [activator, single point]
CN(c1ccc(O)cc1)c1nc(-c2cccnc2)cs1 4.47 µM [activator, single point]
O=C(CN1C(=O)c2ccccc2S1(=O)=O)c1ccccc1 0.447 µM [activator, partial curve]
CC(C)Nc1nnc(SCC(=O)Nc2ccc3c(c2)C(=O)c2ccccc2C3=O)s1 2.51 µM [activator, partial curve]
COc1ccc(OCc2cc(C(=O)NCC3CCCCO3)no2)c(Cl)c1 (centres undefined) 3.55 µM [activator, partial curve]
O=C(/C=C/C=C/c1ccccc1)c1ccco1 5.62 µM [activator, single point]
CCCc1nc(-c2ccc(-c3ccc(F)cc3)cc2)no1 3.98 µM [activator, partial curve]
O=C(Nc1ccc2ncccc2c1)c1cccc(Br)c1 5.62 µM [activator, single point]
COc1ccc(C2CC(c3cccs3)=NN2S(C)(=O)=O)cc1 (centres undefined) 3.55 µM [activator, single point]
COc1ccc(Oc2cnc3ccccc3n2)cc1 3.16 µM [activator, partial curve]
CCOc1ccc(CNC(=O)Nc2ccccc2)cc1 3.98 µM [activator, partial curve]
Brc1c(CSc2nc3ccccc3o2)nc2ncccn12 2.51 µM [activator, partial curve]
Cn1cc(-c2nc3ccccc3[nH]2)c2ccccc21 3.55 µM [activator, partial curve]
Nc1ccc(-c2nc3ccc(N)cc3s2)cc1 0.447 µM [activator, full curve]
CCn1c(C)nc2cc(C(=O)OC(C(F)(F)C(F)F)C(F)(F)C(F)F)ccc21 5.62 µM [activator, single point]
CCc1nnc(NC(=O)c2ccc(S(C)(=O)=O)cc2)s1 3.55 µM [activator, partial curve]
Cc1ccc(OCc2cc(C(=O)NCCc3cccnc3)no2)cc1C 6.31 µM [activator, single point]
O=C(c1ccccc1-c1nc(-c2ccc(Cl)cc2)no1)N1CCCC1 3.16 µM [activator, single point]
COc1ccc(CN=C(Nc2ccccc2)SC2CC(=O)NC2=O)cc1 (centres undefined) 5.62 µM [activator, single point]
Cc1c(C(=O)NCC2CCCO2)oc2ccc3c(c12)C(=O)CC(C)(C)O3 (centres undefined) 5.62 µM [activator, single point]
Cc1ccc2nc(-c3cc(N)cc(N)c3)oc2c1 1 µM [activator, full curve, poor fit]
COc1ccc2c(=O)c(-c3ccc(OC)c(OC)c3)coc2c1 2.82 µM [activator, partial curve]
Cc1ccc2c(n1)sc1c(N)ncnc12 3.16 µM [activator, single point]
Cc1ccsc1C(=O)Nc1nccs1 3.55 µM [activator, single point]
O=c1c2ccccc2nc(/C=C/c2c[nH]c3ccccc23)n1CCO 5.62 µM [activator, single point]
Cc1ccc(C(=O)Nc2ccc(CN3CCS(=O)(=O)CC3)cc2)cc1C 3.16 µM [activator, partial curve]
Cc1ccc(NC(=O)c2cncc(Br)c2)cc1S(=O)(=O)N(C)C 3.16 µM [activator, single point]
O=C(/C=C\c1ccc(-c2ccccc2)o1)c1ccccc1 3.55 µM [activator, single point]

Potency, active:
O=C(CSc1nnc(NC(=O)c2ccc(F)cc2)s1)NC1CC1 2.51 µM
CC(C)(C)C(=O)OCc1nc(-c2ccc(Cl)cc2)cs1 3.55 µM
COCCn1c(C(F)(F)F)ccc(NC(=O)c2ccccc2)c1=O 1.41 µM
CC(=O)Nc1ccc(-c2cc3ccccc3o2)cc1 2.24 µM
CCOC(=O)c1nn(-c2ccc3c(c2)OCCO3)cc1O 2.82 µM
Cn1ncc(Cl)c1C(=O)Nc1nc2ccc(Cl)cc2s1 3.16 µM
O=C(Nc1nc2cc3c(cc2s1)OCCO3)C1CCCCC1 0.501 µM
CCC/C=N/Nc1nc2ccccc2s1 3.55 µM
CC(=O)Nc1cccc(C(=O)N/N=C/c2ccccc2F)c1 3.16 µM
Oc1ccccc1N1CCN(c2ccc3ccccc3n2)CC1 1.26 µM
Cc1ccc(-c2nc(-c3ccncc3)no2)c(C)c1 3.16 µM
